Experimental data reported in the supplement of paper PMC4967469.
The IC50 comes from the fitted curve, where viability falls to half of the control; where the fit passes the top or lowest dose, that dose stands as a limit. AUC, from the same fit, is the share of area under the viability curve across the 256-fold dose range; the more sensitive the line, the further below 1. For part of these data: A top dose marked as inferred was calculated from the reported fits. For part of these data: Drugs with an entry number were screened twice under separate entries, and the two screens often disagree.

Tests used:
Assay in all cases: Viability of human cancer cell lines after 72 h of drug (GDSC screen)
Parthenolide = compound: C=C1C(=O)O[C@H]2[C@H]1CC/C(C)=C/CC[C@@]1(C)O[C@@H]21 [Parthenolide]; conditions: top dose 5 µM
Description: (§1)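 Human cancer cell lines in 384-well plates, medium with 10% serum, drug for 72 h over a 256-fold dose range (nine 2-fold or five 4-fold steps up to the top dose). Adherent lines were fixed and stained with the nucleic acid dye Syto60, suspension lines read with resazurin; signal relative to control wells, capped at 0 and 100%. One two-parameter sigmoid per drug and line, fitted in a mixed model over all curves with the slope shared within a line.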

PAC-1 = compound: C=CCc1cccc(/C=N/NC(=O)CN2CCN(Cc3ccccc3)CC2)c1O [PAC-1]; conditions: top dose 2.56 µM
Description: as §1

KIN001-135 = compound: COc1cc2ncn(-c3cc(OCc4ccccc4S(C)(=O)=O)c(C#N)s3)c2cc1OC [KIN001-135]; conditions: top dose 5 µM; top dose inferred
Description: as §1

BMS-708163 = compound: NC(=O)[C@@H](CCC(F)(F)F)N(Cc1ccc(-c2ncon2)cc1F)S(=O)(=O)c1ccc(Cl)cc1 [BMS-708163]; conditions: top dose 5 µM; screen: GDSC drug entry 1072; top dose inferred
Description: as §1

Row | Cell Line | AUC (Parthenolide) | IC50 (Parthenolide) [µM] | AUC (PAC-1) | IC50 (PAC-1) [µM] | AUC (KIN001-135) | IC50 (KIN001-135) [µM] | AUC (BMS-708163) | IC50 (BMS-708163) [µM]
1 | 8-MG-BA (glioma, adherent) | 0.88 | 4.64 | 0.988 | > 2.56 | 0.988 | > 5 | 0.985 | > 5
2 | 697 (lymphoblastic leukaemia, suspension) | 0.6 | 0.555 | 0.731 | 0.616 | 0.985 | > 5 | 0.991 | > 5
3 | A3-KAW (B-cell lymphoma, suspension) | 0.81 | 2 | 0.89 | 1.91 | 0.992 | > 5 | 0.993 | > 5
4 | A4-Fuk (B-cell lymphoma, suspension) | 0.918 | > 5 | 0.912 | > 2.56 | 0.986 | > 5 | 0.978 | > 5
5 | A101D (melanoma, adherent) | 0.912 | > 5 | 0.868 | > 2.56 | 0.975 | > 5 | 0.968 | > 5
6 | A253 (head and neck, adherent) | 0.989 | > 5 | 0.977 | > 2.56 | 0.989 | > 5 | 0.973 | > 5
7 | A388 (skin, adherent) | 0.872 | > 5 | 0.978 | > 2.56 | 0.975 | > 5 | 0.908 | > 5
8 | A498 (kidney, adherent) | 0.975 | > 5 | 0.957 | > 2.56 | 0.979 | > 5 | 0.979 | > 5
9 | ALL-PO (lymphoblastic leukaemia, suspension) | 0.906 | > 5 | 0.853 | 2.17 | 0.977 | > 5 | 0.983 | > 5
10 | ALL-SIL (T-cell leukaemia, suspension) | 0.787 | 1.85 | 0.675 | 0.455 | 0.989 | > 5 | 0.974 | > 5
11 | AM-38 (glioma, semi-adherent) | 0.976 | > 5 | 0.963 | > 2.56 | 0.988 | > 5 | 0.984 | > 5
12 | AMO-1 (haematopoietic neoplasm, suspension) | 0.99 | > 5 | 0.835 | 1.36 | 0.991 | > 5 | 0.99 | > 5
13 | ARH-77 (myeloma, suspension) | 0.934 | > 5 | 0.849 | 1.82 | 0.972 | > 5 | 0.988 | > 5
14 | ATN-1 (T-cell lymphoblastic leukaemia, suspension) | 0.971 | > 5 | 0.97 | > 2.56 | 0.981 | > 5 | 0.977 | > 5
15 | BB30-HNC (head and neck, adherent) | 0.883 | > 5 | 0.966 | > 2.56 | 0.98 | > 5 | 0.929 | > 5
16 | BB49-HNC (head and neck, adherent) | 0.976 | > 5 |  |  | 0.977 | > 5 | 0.802 | 3.74
17 | BB65-RCC (kidney, adherent) | 0.825 | 3.63 | 0.947 | > 2.56 | 0.983 | > 5 | 0.978 | > 5
18 | BC-1 (B-cell lymphoma, suspension) | 0.901 | 4.8 | 0.793 | 0.979 | 0.99 | > 5 | 0.991 | > 5
19 | BC-3 (B-cell lymphoma, suspension) | 0.971 | > 5 | 0.957 | > 2.56 | 0.989 | > 5 |  | 
20 | BE2-M17 (neuroblastoma, adherent) | 0.977 | > 5 | 0.987 | > 2.56 | 0.987 | > 5 | 0.98 | > 5
21 | BE-13 (lymphoblastic leukaemia, suspension) | 0.987 | > 5 | 0.884 | 2.45 | 0.987 | > 5 | 0.982 | > 5
22 | CAL-148 (breast, suspension) | 0.989 | > 5 | 0.959 | > 2.56 | 0.986 | > 5 |  | 
23 | CAS-1 (glioma, adherent) | 0.934 | > 5 | 0.899 | > 2.56 | 0.943 | > 5 |  | 

Row | Cell Line | AUC (Parthenolide) | IC50 (Parthenolide) [µM] | AUC (PAC-1) | IC50 (PAC-1) [µM] | AUC (KIN001-135) | IC50 (KIN001-135) [µM] | AUC (BMS-708163) | IC50 (BMS-708163) [µM]
24 | Calu-6 (lung adenocarcinoma, adherent) | 0.901 | > 5 | 0.98 | > 2.56 | 0.984 | > 5 |  | 
25 | D-247MG (glioma, adherent) | 0.891 | > 5 |  |  | 0.98 | > 5 | 0.978 | > 5
26 | D-336MG (glioma, adherent) | 0.931 | > 5 |  |  | 0.98 | > 5 | 0.98 | > 5
27 | DB (B-cell lymphoma, suspension) | 0.983 | > 5 | 0.958 | > 2.56 | 0.983 | > 5 |  | 
28 | DOHH-2 (B-cell lymphoma, suspension) | 0.984 | > 5 | 0.88 | > 2.56 | 0.941 | > 5 |  | 
29 | ECC12 (stomach, suspension) | 0.973 | > 5 |  |  | 0.98 | > 5 |  | 
30 | ES4 (Ewing sarcoma, adherent) | 0.982 | > 5 | 0.798 | 1.44 | 0.975 | > 5 |  | 
31 | EW-12 (Ewing sarcoma, suspension) | 0.932 | > 5 |  |  | 0.975 | > 5 |  | 
32 | EW-22 (Ewing sarcoma, adherent) | 0.984 | > 5 |  |  | 0.975 | > 5 | 0.988 | > 5
33 | GA-10 (Burkitt lymphoma, suspension) | 0.729 | 1.23 |  |  | 0.953 | > 5 | 0.962 | > 5
34 | GAK (melanoma, adherent) | 0.952 | > 5 | 0.984 | > 2.56 |  |  |  | 
35 | HCC1599 (breast, suspension) | 0.961 | > 5 | 0.923 | > 2.56 | 0.981 | > 5 |  | 
36 | HCC-33 (small cell lung carcinoma, adherent) | 0.978 | > 5 | 0.878 | > 2.56 | 0.986 | > 5 |  | 
37 | Hs-445 (Hodgkin lymphoma, suspension) | 0.987 | > 5 | 0.84 | 1.57 | 0.983 | > 5 |  | 
38 | KASUMI-1 (acute myeloid leukaemia, suspension) | 0.949 | > 5 |  |  | 0.979 | > 5 | 0.879 | > 5
39 | KP-N-YN (neuroblastoma, adherent) | 0.971 | > 5 | 0.863 | > 2.56 | 0.981 | > 5 |  | 
40 | KP-N-YS (neuroblastoma, adherent) | 0.972 | > 5 | 0.891 | > 2.56 | 0.982 | > 5 |  | 
41 | MHH-NB-11 (neuroblastoma, adherent) | 0.965 | > 5 | 0.972 | > 2.56 | 0.979 | > 5 |  | 
42 | MMAC-SF (melanoma, adherent) | 0.952 | > 5 | 0.96 | > 2.56 | 0.984 | > 5 |  | 
43 | NB7 (neuroblastoma, adherent) | 0.867 | 4.87 |  |  | 0.986 | > 5 | 0.938 | > 5
44 | NB13 (neuroblastoma, adherent) | 0.826 | 2.57 | 0.922 | > 2.56 | 0.949 | > 5 |  | 
45 | NB17 (neuroblastoma, adherent) | 0.74 |  |  |  | 0.97 | > 5 | 0.962 | > 5
46 | NCI-H128 (small cell lung carcinoma, suspension) | 0.875 | > 5 |  |  | 0.98 | > 5 |  | 

Row | Cell Line | AUC (Parthenolide) | IC50 (Parthenolide) [µM] | AUC (PAC-1) | IC50 (PAC-1) [µM] | AUC (KIN001-135) | IC50 (KIN001-135) [µM] | AUC (BMS-708163) | IC50 (BMS-708163) [µM]
47 | NCI-H226 (lung squamous cell carcinoma, adherent) | 0.983 | > 5 |  |  | 0.969 | > 5 | 0.962 | > 5
48 | NCI-H250 (small cell lung carcinoma, suspension) | 0.971 | > 5 |  |  |  |  |  | 
49 | NCI-H378 (small cell lung carcinoma, suspension) | 0.986 | > 5 |  |  | 0.983 | > 5 |  | 
50 | NCI-H748 (small cell lung carcinoma, suspension) | 0.895 | > 5 | 0.926 | > 2.56 | 0.946 | > 5 |  | 
51 | NCI-H1838 (lung adenocarcinoma, adherent) | 0.986 | > 5 | 0.975 | > 2.56 | 0.967 | > 5 |  | 
52 | NCI-H2171 (small cell lung carcinoma, suspension) | 0.948 | > 5 | 0.992 | > 2.56 | 0.988 | > 5 |  | 
53 | NCI-H2196 (small cell lung carcinoma, adherent) | 0.987 | > 5 | 0.978 | > 2.56 | 0.98 | > 5 |  | 
54 | NK-92MI (lymphoid neoplasm, suspension) | 0.832 | 2.9 | 0.855 | 1.83 | 0.987 | > 5 |  | 
55 | NU-DUL-1 (B-cell lymphoma, suspension) | 0.858 | 2.89 | 0.83 | 1.19 | 0.992 | > 5 |  | 
56 | PL-21 (acute myeloid leukaemia, suspension) | 0.946 | > 5 | 0.872 | > 2.56 | 0.977 | > 5 |  | 
57 | RL95-2 (endometrium, adherent) | 0.975 | > 5 |  |  | 0.979 | > 5 |  | 
58 | SCC-3 (B-cell lymphoma, suspension) | 0.834 | 2.08 | 0.996 | > 2.56 | 0.992 | > 5 |  | 
59 | SIG-M5 (acute myeloid leukaemia, suspension) | 0.962 | > 5 | 0.782 | 0.805 | 0.994 | > 5 |  | 
60 | SKM-1 (haematopoietic neoplasm, suspension) | 0.983 | > 5 |  |  | 0.984 | > 5 | 0.984 | > 5
61 | SU-DHL-1 (anaplastic large cell lymphoma, suspension) | 0.997 | > 5 | 0.997 | > 2.56 | 0.994 | > 5 |  | 
62 | SU-DHL-8 (B-cell lymphoma, suspension) | 0.793 | 2.11 | 0.739 | 0.728 | 0.953 | > 5 |  | 
63 | TALL-1 (T-cell lymphoblastic leukaemia, suspension) | 0.944 | > 5 | 0.983 | > 2.56 | 0.982 | > 5 |  | 
64 | TC-YIK (cervix, suspension) | 0.991 | > 5 |  |  | 0.984 | > 5 | 0.958 | > 5
65 | TE-441-T (rhabdomyosarcoma, adherent) | 0.974 | > 5 | 0.979 | > 2.56 | 0.969 | > 5 |  | 
66 | THP-1 (acute myeloid leukaemia, suspension) |  |  | 0.942 | > 2.56 | 0.987 | > 5 | 0.991 | > 5
67 | UACC-812 (breast, adherent) | 0.991 | > 5 | 0.991 | > 2.56 | 0.983 | > 5 |  | 
68 | VA-ES-BJ (soft tissue, adherent) | 0.889 | > 5 |  |  | 0.984 | > 5 | 0.975 | > 5
